Source: a collection of fitness landscapes (doi:10.1016/j.celrep.2020.107928)
Whole data set: some 81,000 sequences, median “one-hybrid fitness for binding NBS DNA” near -0.1, cut for the highest 2% near 0.36. The list shows a part of the results.

B1: Caulobacter ParB omega fusion; a variant is named by its letters at X, in order, B8GW30 (parent)
chain: MESVVVGEPGMSEGRRGLGRGLSALLGEVDAAPAQAPGEQLGGSREAPIEILQRNPDQPRRTFREEDLEDLSNSIREKGVLQPILVRPSPDTAGEYQIVAGERAWRAAQRAGLKTVPIMVRELDDLAVLEIGIIENVQRADLNVLEEALSYKVLMEKFERTQENIAQTIGKSXSHVANXMRLLXLPDEVQSYLVSGELTAXHARAIAAAADPVALAKQIIEGGLSVRETEALARKAPNLSAGKSKGGRPPRVKDTDTQALESDLSSVLGLDVSIDHRGSTGTLTITYATLEQLDDLCNRLTRGI

Variants of: B1
Assay: one-hybrid fitness for binding NBS DNA (the Noc-binding site; scaled: cognate 1, non-cognate 0); higher = stronger binding
Conditions: with NBS DNA site
Procedure, shortened: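 Values were rescaled so that cognate is 1 and non-cognate is 0. Each is a fitness, the log change in a variant's read ratio to wild type from Illumina reads of plasmids before and after selection, with three replicate libraries pooled and variants under 10 reads dropped. Selection of the Caulobacter ParB libraries, four specificity codons randomised, used E. coli USO with a HIS3 reporter, site 19 bp from the promoter, on M9-minus-histidine with 0.1 mM IPTG and 5 mM 3-AT for 48 hours at 37°C.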

Variant | one-hybrid fitness for binding NBS DNA
YEAM | ≤ 0.2
PELA | ≤ 0.2
LLCY | ≤ 0.2
QIDN | ≤ 0.2
DCRV | ≤ 0.2
TKEL | ≤ 0.2
AHIG | ≤ 0.2
NNPS | ≤ 0.2
PMKG | ≤ 0.2
HDLQ | ≤ 0.2
ALNC | ≤ 0.2
INAR | ≤ 0.2
YPTV | ≤ 0.2
RRNG | 0.343
PEKG | ≤ 0.2
RVSL | ≤ 0.2
AQSY | ≤ 0.2
PQPN | ≤ 0.2
PNVR | ≤ 0.2
EFLS | ≤ 0.2
KCEV | ≤ 0.2
FSMT | ≤ 0.2
SSSY | ≤ 0.2
MSIC | ≤ 0.2
KQHW | ≤ 0.2
EGVS | ≤ 0.2

Variant | one-hybrid fitness for binding NBS DNA
SNLN | ≤ 0.2
VMGW | ≤ 0.2
RPMF | ≤ 0.2
IFLH | ≤ 0.2
STGN | ≤ 0.2
CCSV | ≤ 0.2
KKAS | ≤ 0.2
CAHI | ≤ 0.2
FQHR | ≤ 0.2
SWML | ≤ 0.2
QQAA | 0.347
GSIK | ≤ 0.2
QLKC | 0.304
AQVL | ≤ 0.2
EWMG | ≤ 0.2
CLKR | ≤ 0.2
KTGF | ≤ 0.2
LNSS | ≤ 0.2
LNGF | ≤ 0.2
QKPD | ≤ 0.2
GKKG | ≤ 0.2
PFRE | ≤ 0.2
LSNF | ≤ 0.2
PSYP | ≤ 0.2
PDNK | ≤ 0.2
PCTD | ≤ 0.2

Variant | one-hybrid fitness for binding NBS DNA
IFNV | ≤ 0.2
THFN | ≤ 0.2
SYEK | ≤ 0.2
GDRN | ≤ 0.2
YAER | ≤ 0.2
QPDG | ≤ 0.2
CRYF | ≤ 0.2
IIMG | ≤ 0.2
YYWL | ≤ 0.2
EFVR | ≤ 0.2
ACWR | ≤ 0.2
RVED | ≤ 0.2
NYTV | ≤ 0.2
AVDC | ≤ 0.2
PACF | ≤ 0.2
TDHK | ≤ 0.2
RWYE | ≤ 0.2
TNMY | ≤ 0.2
TDRG | ≤ 0.2
QNPC | ≤ 0.2
IADC | ≤ 0.2
VVLL | ≤ 0.2
HADW | ≤ 0.2
VYRF | ≤ 0.2
KRDR | 0.336
RYQL | ≤ 0.2

Variant | one-hybrid fitness for binding NBS DNA
AQAT | ≤ 0.2
PLCC | ≤ 0.2
MRGT | ≤ 0.2
EPIM | ≤ 0.2
AARL | ≤ 0.2
TVEY | ≤ 0.2
RTEY | ≤ 0.2
DNQT | ≤ 0.2
WINT | ≤ 0.2
RTST | 0.565
LAFL | ≤ 0.2
ACNA | ≤ 0.2
ANCR | ≤ 0.2
RNIR | ≤ 0.2
FLTV | ≤ 0.2
NDQG | ≤ 0.2
RGEL | ≤ 0.2
TPTA | ≤ 0.2
EGDG | ≤ 0.2
RRHD | ≤ 0.2
LWPS | ≤ 0.2
NIQI | ≤ 0.2
DDTI | ≤ 0.2
HKDT | ≤ 0.2
LESH | ≤ 0.2
LVCA | ≤ 0.2

Variant | one-hybrid fitness for binding NBS DNA
EAHR | ≤ 0.2
GRKY | ≤ 0.2
KRVS | 0.395
GQGG | ≤ 0.2
QHMK | ≤ 0.2
HWAD | ≤ 0.2
WNLN | ≤ 0.2
YKNR | ≤ 0.2
VGFS | ≤ 0.2
NSDP | ≤ 0.2
RAPF | ≤ 0.2
SSAR | ≤ 0.2
PHNG | ≤ 0.2
CSYW | ≤ 0.2
RHHM | ≤ 0.2
LDPT | ≤ 0.2
LCVR | ≤ 0.2
YVGL | ≤ 0.2
TQQL | ≤ 0.2
IMKC | ≤ 0.2
SAAG | ≤ 0.2
TYRY | ≤ 0.2
QVMG | ≤ 0.2
RAYN | ≤ 0.2
VVSE | ≤ 0.2
CQPT | ≤ 0.2

Variant | one-hybrid fitness for binding NBS DNA
RWPE | ≤ 0.2
IGPV | ≤ 0.2
RTGD | ≤ 0.2
AVTR | ≤ 0.2
CHIS | ≤ 0.2
PTTP | ≤ 0.2
THTD | ≤ 0.2
SSSN | ≤ 0.2
RQNH | 0.34
YCYR | ≤ 0.2
IDLT | ≤ 0.2
CIQD | ≤ 0.2
PDHA | ≤ 0.2
AQIF | ≤ 0.2
DMTF | ≤ 0.2
DNMS | ≤ 0.2
WTLP | ≤ 0.2
TNVD | ≤ 0.2
RMSQ | ≤ 0.2
RIIC | ≤ 0.2
HSAC | ≤ 0.2
TINT | ≤ 0.2
ESPF | ≤ 0.2
